# Measured values from the supplement of paper PMC11417369.
# ± gives the standard deviation of the averaged measurements. This is one part of the list.
# System: PfAP2-LT AP2 domain (GST-tagged)
# Test: gcPBM binding intensity (ln(normalized median fluorescence intensity)); higher = stronger DNA binding
# How it was run: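 For binding intensity, the highest Masliner-normalised natural-log median intensity across replicate spots of either probe orientation was taken. Protein bound to the array was stained with Alexa488 anti-GST antibody and scanned at 488 nm. The protein, GST-tagged P. falciparum DNA-binding domains from E. coli at about 25 μg on average, had been applied for 1 h to an Agilent 4 × 180k array of primer-extended double-stranded 36-bp intergenic genomic probes and negative controls.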
row,Sequence,gcPBM binding intensity (ln)
1,AATATAAATACTCCTACACACATATATATATATATA [CACACA_site3010],9.81 ± 0.23
2,ACAAATACAAAAAAAGGTACACACATAATATATTTA [XGTACX_site5515],9.26 ± 0.53
3,TTTGTTTTTAATTTCGCACACACCTTGTGGAAAAAA [CACACA_site577],8.98 ± 0.3
4,AAATATTTTATACTTGCACACAAAATATATTAAAAT [CACACA_site8606],8.89 ± 0.38
5,ATCCCCATAAAAAATACACACAAATATTTATACATA [CACACA_site1001],9.05 ± 0.35
6,ATATATTAAAAGGATTAGGAAAAAATATGATTTATC [TGCATGCA_negctrl_site405],8.47 ± 0.47
7,ATAGAATCTGGTAGCTGTACGAGTCGTAGAGTGTAG [XGTACX_site2016],9.13 ± 0.45
8,AAGTAAAAAAAAAAAAGTACATGTTTATATAAATAT [XGTACX_site4741],8.81 ± 0.51
9,ATAAATTAACATTAAAGTACATTTTAATAAATATTA [XGTACX_site3647],8.31 ± 0.52
10,ATACATATATATAATACACACATAAATGTAACATTT [CACACA_site3518],9.12 ± 0.35
11,GATCAAAATTATAGAAGTACTTTATATAAATAAAAT [XGTACX_site8161],8.63 ± 0.45
12,TATATATATAAGATTGTGCACATTAAAATGATAGAA [GTGCAC_site9621],8.9 ± 0.5
13,TCATAAATACATTTTGCATGTAAAATATAGAATACA [TGCATGCA_site755],8.74 ± 0.42
14,TCTATAAAATATAAAAGTACGTATCAATAATTAAAA [XGTACX_site8469],8.69 ± 0.49
15,ATTACGATAGAGAAATGTACATATATATATGTAAGT [XGTACX_site1200],9.12 ± 0.41
16,TATTTTATAAATTAATGTACATAAATTATATCTACT [XGTACX_site3625],8.55 ± 0.43
17,TGATAAGAAAAAGACTTTTCCTTCTTACTTTCTATG [CACACA_negctrl_site782],8.55 ± 0.59
18,CAAAATAAATAATTTGGTACACATAAAAAAAAAAAA [XGTACX_site8380],8.79 ± 0.69
19,AATAATGTTTTTATATCACACACAAATATTAAATGA [CACACA_site8074],8.83 ± 0.47
20,AAAATTGGTGAAAATGAAAATATGATTATATGTATA [XGTACX_negctrl_site505],8.56 ± 0.53
21,CCATAAAACTATAATACACACATATAGATTAACATA [CACACA_site7849],9.07 ± 0.35
22,GATATAATTATGTGTACACAATTTTTTTTTTTTTTT [CACACA_site4501],8.79 ± 0.43

row,Sequence,gcPBM binding intensity (ln)
1,AAATAAAGGAAATAAAAAGAAACCAATTTCGAATAT [CACACA_negctrl_site953],8.77 ± 0.55
2,TTTATATGTATTAATTGTACACATATAATGTGTTTT [XGTACX_site3064],8.98 ± 0.42
3,TTTTTTTTAAAACTATGTACGTAAAAATTGTAGTTT [XGTACX_site2302],8.43 ± 0.63
4,ATATGTATGTATAATCGTACAAAATTTGGCGATCTT [XGTACX_site8698],8.85 ± 0.47
5,AGAACTTTTAATGGATGTACAGTTATTTTATTATTT [XGTACX_site6226],8.75 ± 0.42
6,ATATAGTAAATTGGTAGTACATAAAATGATTTTATG [XGTACX_site4143],8.74 ± 0.49
7,TATATAGATATGATAGTGCATTTTTAGAAAACATAA [GTGCAC_site9962],8.6 ± 0.45
8,TTATGTAGCTAGCTATAAACTTTTTTTTATTTAAAA [CACACA_negctrl_site1297],8.21 ± 0.36
9,AACAGATAAAAGGGTACACACATATATACAAGTACA [CACACA_site7959],9.21 ± 0.42
10,ATATATATATATATATGTACATACTATACAATAATT [XGTACX_site3546],9.75 ± 0.24
11,ATTATTATTAAATACACACACATACCTCCATGTTAG [CACACA_site3430],9.42 ± 0.34
12,AAAGGGAATTATGGCTGTACGCATTTTATAAATAGC [XGTACX_site5878],8.88 ± 0.4
13,TTGTTATTATATTACGCATGCATCATTTATTTGCAC [TGCATGCA_site525],9.24 ± 0.43
14,TTTTTTTTTCTTCTTTTCAAATTTAAGAAATTATAA [CACACA_negctrl_site18],7.98 ± 0.45
15,TGCTGTATATTTTTCTGTACACATTTATATATTCCA [XGTACX_site6244],8.96 ± 0.43
16,AAGAATAAGAAGAAGGATCCCCTTCAAAAAAAAAAA [TGCATGCA_negctrl_site525],8.56 ± 0.63
17,ATGAAGAATTTATATTGTACCCATTTTTATGTAAAT [XGTACX_site2528],8.7 ± 0.43
18,AAAAAAAAAACATACACACATACATACATATATATT [CACACA_site949],9.28 ± 0.27
19,CGAAAAAGTGATATAGTGCAAAATTTTCATTTCTCT,8.86 ± 0.49
20,AATATTTTTGTCGTTAGTACATAAAAAATAATAATA [XGTACX_site3074],8.43 ± 0.4
21,ATAATTTTATCATATATATATATATATAAATACTTA [CACACA_negctrl_site743],8.72 ± 0.3
22,ATGCTTTTATGCACACGTACAAAAATATTATATAAT [XGTACX_site5589],8.82 ± 0.32

row,Sequence,gcPBM binding intensity (ln)
1,AAAAATTGAATTTTTTTTTTTTTTTTGAGAAGGAAA [CACACA_negctrl_site1196],7.89 ± 0.4
2,AATAATAAAGTGAACACACACATATAATATATATAT [CACACA_site4143],9.38 ± 0.35
3,ATAATTAAAATGCTCACACACATAAAAAAAAATTAA [CACACA_site2149],8.94 ± 0.46
4,AATAATATATTTAGGGGTACATAATAATATATTTTA [XGTACX_site8366],8.66 ± 0.3
5,AAAAATAGAATAAATACACACCCGTGTAACGGATTT [CACACA_site3372],8.87 ± 0.45
6,TTTATAAAAATGAACACACACATATAAATATAAATA [CACACA_site7607],9.17 ± 0.37
7,TTTTAAATATGAACATGTACATGTAAATTTACATGT [XGTACX_site4573],8.64 ± 0.38
8,TATTTTTATAAGTAAAAGGAGCACAGTTAAAGGATC [XGTACX_negctrl_site362],8.71 ± 0.41
9,TTTTAATTTATTAATTGTACATGTATTTTAAGATTA [XGTACX_site8417],8.61 ± 0.38
10,TTATTATTAAAAAAAAGTACAGAATTGAATAATACA [XGTACX_site651],8.53 ± 0.46
11,ATTTTTGTGTATTAATGTACTTTATGCATATTTGAC [XGTACX_site3353],9.05 ± 0.34
12,TAAACATTTGGCTGATGTACTTGCTACCTTAAATCA [XGTACX_site5514],8.63 ± 0.55
13,TTGGTCTTTTAAAAAAGTACAAAAAAAAAAAAAAAA [XGTACX_site1665],8.08 ± 0.55
14,TATAAATAAAGATATACACACATATAAATATTTTTC [CACACA_site7798],8.88 ± 0.44
15,TTACGATCATCAATATGTACATATATATATATATAT [XGTACX_site4301],9.625 ± 0.035
16,ATTTTTTTTTTTATAGTGGATCCACATTTGCCATTT [CACACA_negctrl_site1106],8.87 ± 0.52
17,TATAAAAAAATATTATAATATATATATATATATATA [XGTACX_negctrl_site41],8.99 ± 0.014
18,AATATTTATATTTACACACACATAATACATCTATGT [CACACA_site4187],9.44 ± 0.26
19,AAAAAAGAACGCATAGTGCATATCTAAAAGATTTTT,8.94 ± 0.36
20,GATAAATTAAGACACACACACATATATTTATTTATA [CACACA_site7789],9.64 ± 0.23
21,TAGTATTAGATATATACACACATATATACCTATAGA [CACACA_site7083],8.97 ± 0.31
22,TATATATATATATATACACACATATATACCTATATA [CACACA_site6085],9.85 ± 0.18

row,Sequence,gcPBM binding intensity (ln)
1,CATGTTCATCAGAACGCACACATAATGGTTTACTTA [CACACA_site898],9.03 ± 0.38
2,AAGAAAAAAAAAATTACACACTGCGCACATACACAA [CACACA_site6721],9.08 ± 0.35
3,ACTTATATAAAACATTAACACACAAAGAAAAAAAAT [CACACA_site8529],9.11 ± 0.47
4,GATACACCAAATAACTGTACGCACGTGTAATATTAA [XGTACX_site3441],9.08 ± 0.48
5,AGTAACTAATTAAATGCATGTCGATATATATTATAT [TGCATGCA_site1038],8.92 ± 0.4
6,GTGTATATGTATATATGTACATAAATTTTTTTTTTT [XGTACX_site7083],8.69 ± 0.35
7,CCTAGAAAAGTATATACACACGCGCAAAATAAAATT [CACACA_site1413],9.35 ± 0.26
8,TTAACCGGTTTATGGGTGCACATTCTTCTTAAATAA [GTGCAC_site9928],8.56 ± 0.46
9,AAAAAAAAGTTAAGCACACACATGAATAAATAATAC [CACACA_site840],9.34 ± 0.46
10,TATAAAAAAAACAAAAAAAAAAAAAAACAAAAAAAA [TGCATGCA_negctrl_site514],8.44 ± 0.45
11,TTTTTTTGTTGTTGTTGTACGATATTTTCCTTATCA [XGTACX_site2375],9.07 ± 0.52
12,TGTATAAAAGTTTATACACACATTTGATATATTTCA [CACACA_site6606],8.81 ± 0.37
13,TTTTATTTTTATTATACACACGCTTAATAAATGCAT [CACACA_site1751],8.97 ± 0.42
14,GGGAATATAAGTACACGATAATATGTGATAAGGTCT [CACACA_negctrl_site1502],9.31 ± 0.46
15,GGGGGGATGAGATATTGTACTTTTTAGGAAAGTGTA [XGTACX_site2835],9.39 ± 0.37
16,AAAGATAAAATATTATGTACATATATATATATATAT [XGTACX_site5079],9.29 ± 0.27
17,CATTTAACATAAATTAAACACACAATATAATACATT [CACACA_site8333],8.85 ± 0.42
18,AATAATAATACTAATCGTACGCATATTTTTCAAACC [XGTACX_site8055],8.94 ± 0.26
19,ATTAAATACATTAACACACACACAAATATATACATA [CACACA_site2881],9.68 ± 0.16
20,AAAAAAATATATATATATATATATATATATATATAT [TGCATGCA_negctrl_site7],9.605 ± 0.064
21,AAATATAATAATATATGTACATATATATATATATAT [XGTACX_site6980],9.31 ± 0.31
22,TATACATATTATATATGTACACATATTATATGTATA [XGTACX_site5851],8.75 ± 0.34
